According to the supplement of paper PMC8728848:
This is one part of the list.

Key:
Assay in all cases: glycan array binding signal (z-score within array); higher = stronger binding
Settings in all cases: glycan notation: IUPAC condensed, linker removed
[1] = molecular target: Neu5Ac(a2-6)GlcNAc(b1-4)GlcNAc(b1-4)GlcNAc
Method in brief: (§1)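 Negative Z-scores can be read as non-binding. The Z-score is calculated within each array and then averaged across arrays of one protein sequence at different concentrations or buffers and across linkers. Arrays, 3228 in all, were curated from the Consortium for Functional Glycomics database and kept only where the protein sequence was available.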

Neu5Ac(a2-8)Neu5Ac = molecular target: Neu5Ac(a2-8)Neu5Ac
Method in brief: as §1

[2] = molecular target: Neu5Ac(a2-8)Neu5Ac(a2-3)Gal(b1-3)GalNAc(b1-4)[Neu5Ac(a2-3)]Gal(b1-4)Glc
Method in brief: as §1

[3] = molecular target: Neu5Ac(a2-8)Neu5Ac(a2-3)Gal(b1-3)GalNAc(b1-4)[Neu5Ac(a2-8)Neu5Ac(a2-3)]Gal(b1-4)Glc
Method in brief: as §1

[4] = molecular target: Neu5Ac(a2-8)Neu5Ac(a2-3)Gal(b1-4)Glc
Method in brief: as §1

[5] = molecular target: Neu5Ac(a2-8)Neu5Ac(a2-3)Gal(b1-4)GlcNAc
Method in brief: as §1

[6] = molecular target: Neu5Ac(a2-8)Neu5Ac(a2-3)[Gal(b1-3)GalNAc(b1-4)]Gal(b1-4)Glc
Method in brief: as §1

[7] = molecular target: Neu5Ac(a2-8)Neu5Ac(a2-3)[GalNAc(b1-4)]Gal(b1-4)Glc
Method in brief: as §1

[8] = molecular target: Neu5Ac(a2-8)Neu5Ac(a2-8)Neu5Ac
Method in brief: as §1

[9] = molecular target: Neu5Ac(a2-8)Neu5Ac(a2-8)Neu5Ac(a2-3)Gal(b1-4)Glc
Method in brief: as §1

[10] = molecular target: Neu5Ac(a2-8)Neu5Ac(a2-8)Neu5Ac(a2-3)[Gal(b1-3)GalNAc(b1-4)]Gal(b1-4)Glc
Method in brief: as §1

[11] = molecular target: Neu5Ac(a2-8)Neu5Ac(a2-8)Neu5Ac(a2-3)[GalNAc(b1-4)]Gal(b1-4)Glc
Method in brief: as §1

[12] = molecular target: Neu5Ac(a2-8)Neu5Ac(a2-8)Neu5Ac(a2-8)Neu5Ac(a2-3)[GalNAc(b1-4)]Gal(b1-4)Glc
Method in brief: as §1

[13] = molecular target: Neu5Ac(a2-8)Neu5Gc(a2-3)Gal(b1-4)GlcNAc
Method in brief: as §1

[14] = molecular target: Neu5Ac(b2-6)Gal(b1-4)GlcNAc
Method in brief: as §1

Neu5Ac(b2-6)GalNAc = molecular target: Neu5Ac(b2-6)GalNAc
Method in brief: as §1

[15] = molecular target: Neu5Ac9Ac(a2-3)Gal(b1-3)GlcNAc
Method in brief: as §1

[16] = molecular target: Neu5Ac9Ac(a2-3)Gal(b1-4)GlcNAc
Method in brief: as §1

[17] = molecular target: Neu5Ac9Ac(a2-6)Gal(b1-4)GlcNAc
Method in brief: as §1

[18] = molecular target: Neu5Gc(a2-3)Gal(b1-3)GlcNAc
Method in brief: as §1

[19] = molecular target: Neu5Gc(a2-3)Gal(b1-3)[Fuc(a1-4)]GlcNAc
Method in brief: as §1

Neu5Gc(a2-3)Gal(b1-4)Glc = molecular target: Neu5Gc(a2-3)Gal(b1-4)Glc
Method in brief: as §1

[20] = molecular target: Neu5Gc(a2-3)Gal(b1-4)GlcNAc
Method in brief: as §1

[21] = molecular target: Neu5Gc(a2-3)Gal(b1-4)GlcNAc(b1-3)Gal(b1-4)GlcNAc(b1-2)Man(a1-3)[Neu5Gc(a2-3)Gal(b1-4)GlcNAc(b1-3)Gal(b1-4)GlcNAc(b1-2)Man(a1-6)]Man(b1-4)GlcNAc(b1-4)GlcNAc
Method in brief: as §1

[22] = molecular target: Neu5Gc(a2-3)Gal(b1-4)[Fuc(a1-3)]GlcNAc
Method in brief: as §1

[23] = molecular target: Neu5Gc(a2-6)Gal(b1-4)GlcNAc
Method in brief: as §1

Neu5Gc(a2-6)GalNAc = molecular target: Neu5Gc(a2-6)GalNAc
Method in brief: as §1

[24] = molecular target: Neu5Gc(a2-8)Neu5Ac(a2-3)Gal(b1-4)GlcNAc
Method in brief: as §1

[25] = molecular target: Neu5Gc(a2-8)Neu5Gc(a2-3)Gal(b1-4)GlcNAc
Method in brief: as §1

[26] = molecular target: Neu5Gc(a2-8)Neu5Gc(a2-3)Gal(b1-4)GlcNAc(b1-3)Gal(b1-4)GlcNAc
Method in brief: as §1

B1: Epa10 (protein)
chain: MNEKIFRYLTLLFLFELARSLPVEDKLNIKKVFEKRAVDFTPFAHYPRPEGCSSPPNSVSVGLHMNLYNYPYLYVKPSTKGMFTNDTNSDADGETDGDSAGGIEGRAGQCWNPEYQDPNFPRFGYKQYGEFGASDNVNGDISWDHNEFTEGCKPVLAALPPGYNYPDEITFSNFTMVLSGYFKPKTSGVYKFELKADDFILFNFGAKNAFECCNREESIDNFGPYVAYAMWPNQADQELEVYLFEDSYYPLRLFYNNRDYHSKFKIGFYPPGQTTITFDFDGYLFMLDDTGNECRDSIRYRTVCDDKVVDDTTYSTRYSTSMVPGGGSDVITIYYIRMKCEEEDCLGQWDPINNVCYSPDDCADDGGYWNGQMCDQSCKLEGGIVNPDTGDCDKSCIESGGFLDENGNCDTTCRDDGGMLVEGQCDYQCKEAGGILVGDHCDTTCVDSGGKLNEDGTCDHSCRDQGGQLDENGECDTSCKDSGGMLIEGECDTSCKDEGGQLDDNNECINHCKDQGGIIDENGNCDTSCKDSGGKLDESGACDTSCRDDGGIIDENGNCNTTCRDDGGIIVGDHCDTSCRDAGGILIEDHCDTTCRDSGGKLNEDGTCDHSCRDQGGQLDENGKCDYSCKNGGGKLDEDGNCDMSCKENGGKLDENGDCDLSCKEDGGKLDGNGDCDYSCKEEGGVIDESGNCNTTCKDSGGQIIDGECNYGCIEVGGVVIDGECDTSCIDSGGILDGDGNCDRSCIESGGVLEDGACNTTCRDSGGQLNVDGTCDTSCRDDGGMLVEGQCDYQCKEAGGILEDGECVFPPTSSSTSETSSTTDQSSLQSDDSSMESSSTPMDSSTIESSSSEIITSESESESVPIASSSSEVMTSESESESIPILTSSSEIPIASSSSEIPVASSSSEIIIPESESESVPVASSSSEIPIASSSSEIPVASSSSEIPVASSSSEIIIPESESESIPIESTSSEAVSSRSESDSSYPTPTPTTTTITTWPNPIQPTTSNSSPIVSSSTETPGIAESSSRISDLESSRRTSILGDDRTRTRTTITSTITEDGQIITITTTVTGFVPEPTGETEGNGSDDENPENPIENNTDENEFLDPEFTDDIPDDPAGPEDNGNGPVNPEQGNDNDPVNLEDSGNNGAVNPEQAPVNDEDNGGNDPVNPEQDNNNGPANPGQDSTNGSGNSDQIDNNPPTPEENAGDGNSNGNDPADPSRRTSILGDERTRASPGGTSQPTGANGNVNGNSPGANVNGGGTGNSNNNNNNNNNNNNGNAPNGGDGSNGDANQGPSRRTSLLGDERTRAGQAAPTGGSSPDNGIAGDTSNNGGAIVSQQVDDGGAGSPRRTSILGDVRSRTTLNGEVLNFEGSGVRRAVAGNLALPLMMVGLVFNL
- glycan array binding signal (z-score) [1]: -0.206
- glycan array binding signal (z-score) (Neu5Ac(a2-8)Neu5Ac): -0.236
- glycan array binding signal (z-score) [2]: -0.151
- glycan array binding signal (z-score) [3]: -0.233
- glycan array binding signal (z-score) [4]: -0.282
- glycan array binding signal (z-score) [5]: -0.203
- glycan array binding signal (z-score) [6]: 2.56
- glycan array binding signal (z-score) [7]: -0.27
- glycan array binding signal (z-score) [8]: -0.274
- glycan array binding signal (z-score) [9]: -0.31
- glycan array binding signal (z-score) [10]: -0.226
- glycan array binding signal (z-score) [11]: -0.322
- glycan array binding signal (z-score) [12]: -0.292
- glycan array binding signal (z-score) [13]: -0.257
- glycan array binding signal (z-score) [14]: -0.294
- glycan array binding signal (z-score) (Neu5Ac(b2-6)GalNAc): -0.257
- glycan array binding signal (z-score) [15]: -0.254
- glycan array binding signal (z-score) [16]: -0.271
- glycan array binding signal (z-score) [17]: -0.297
- glycan array binding signal (z-score) [18]: -0.25
- glycan array binding signal (z-score) [19]: -0.222
- glycan array binding signal (z-score) (Neu5Gc(a2-3)Gal(b1-4)Glc): -0.177
- glycan array binding signal (z-score) [20]: -0.269
- glycan array binding signal (z-score) [21]: -0.292
- glycan array binding signal (z-score) [22]: -0.161
- glycan array binding signal (z-score) [23]: -0.302
- glycan array binding signal (z-score) (Neu5Gc(a2-6)GalNAc): -0.24
- glycan array binding signal (z-score) [24]: -0.315
- glycan array binding signal (z-score) [25]: -0.283
- glycan array binding signal (z-score) [26]: -0.156
